This note sets out measurements from publication PMC4336329 (PLoS ONE, 2015).

The campaign covered roughly 310,000 compounds. About 14,000 (4.5%) showed an effect of 50% or more. The effect is printed as a negative number. This is one part of the list.
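Further: peak tail current of the secondary pulse compared with the same well before compound.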

human ether-à-go-go-related gene (hERG) potassium channel, sequence (Q12809 whole entry, looked up): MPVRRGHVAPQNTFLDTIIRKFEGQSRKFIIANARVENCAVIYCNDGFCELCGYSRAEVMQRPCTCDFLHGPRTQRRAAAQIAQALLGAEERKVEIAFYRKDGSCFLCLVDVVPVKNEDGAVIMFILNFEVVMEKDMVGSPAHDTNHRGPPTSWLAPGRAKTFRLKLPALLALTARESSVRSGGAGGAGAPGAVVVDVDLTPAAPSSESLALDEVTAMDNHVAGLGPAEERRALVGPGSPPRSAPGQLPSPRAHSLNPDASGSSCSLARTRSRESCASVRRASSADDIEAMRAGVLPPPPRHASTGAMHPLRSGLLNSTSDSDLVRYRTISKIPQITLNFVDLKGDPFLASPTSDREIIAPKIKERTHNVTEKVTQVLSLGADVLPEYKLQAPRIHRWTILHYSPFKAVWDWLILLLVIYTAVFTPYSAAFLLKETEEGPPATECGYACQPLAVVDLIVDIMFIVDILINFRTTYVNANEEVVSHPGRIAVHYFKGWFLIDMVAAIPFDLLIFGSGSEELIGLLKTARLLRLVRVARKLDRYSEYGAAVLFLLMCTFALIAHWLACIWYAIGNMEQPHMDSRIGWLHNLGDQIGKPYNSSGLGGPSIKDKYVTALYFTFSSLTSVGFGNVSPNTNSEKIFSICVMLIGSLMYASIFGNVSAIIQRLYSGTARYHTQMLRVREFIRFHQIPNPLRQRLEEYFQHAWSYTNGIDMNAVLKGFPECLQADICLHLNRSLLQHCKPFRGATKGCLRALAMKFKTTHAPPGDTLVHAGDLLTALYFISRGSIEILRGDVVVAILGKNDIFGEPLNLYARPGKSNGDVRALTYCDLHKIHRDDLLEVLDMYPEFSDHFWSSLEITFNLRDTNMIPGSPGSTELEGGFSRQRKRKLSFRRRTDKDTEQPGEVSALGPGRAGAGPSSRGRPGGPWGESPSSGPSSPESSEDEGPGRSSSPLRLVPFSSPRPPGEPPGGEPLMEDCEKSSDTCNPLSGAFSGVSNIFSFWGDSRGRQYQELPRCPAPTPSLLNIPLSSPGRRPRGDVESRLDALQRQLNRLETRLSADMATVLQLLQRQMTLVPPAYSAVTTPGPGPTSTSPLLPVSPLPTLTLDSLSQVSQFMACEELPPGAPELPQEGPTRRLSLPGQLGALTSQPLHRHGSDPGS

This test concerns the target human ether-à-go-go-related gene (hERG) potassium channel (human, UniProt Q12809). Description: primary screen, population patch clamp on CHO cells stably expressing hERG.
In the case of `CCOC(=O)N1CCN(C(=O)/C(=C/c2ccc(N(C)C)cc2)NC(=O)c2ccccc2)CC1`, the “hERG current change (%, negative = inhibition) at 10uM” value was -45.6%.
Regarding `Cc1c(OCC(=O)N2CCC(C(N)=O)CC2)ccc2c3c(c(=O)oc12)CCCC3`, the “hERG current change (%, negative = inhibition) at 10uM” value is 14.2%.
As for `CS(=O)(=O)N1CCC(C(=O)NCC2CCCO2)CC1` (centres unmarked), the “hERG current change (%, negative = inhibition) at 10uM” value was 10.3%.
In the case of `O=[N+]([O-])c1cc(-c2csc(NCCc3nc4cc(C(F)(F)F)ccc4n3CCCO)n2)ccc1Cl` it was -3.59%; in that of `CCN(CC(=O)NCc1ccccc1Cl)CC(=O)Nc1c(F)cccc1F.O=C(O)C(=O)O`, -9.59%; in that of `CCn1c(CNc2ccc(Cl)cc2)nnc1SCC(=O)NCc1ccccc1`, -44.4%.
In the case of `O=C(COC(=O)c1cc(S(=O)(=O)N2CCOCC2)c(Cl)cc1Cl)NC1CC1`, the “hERG current change (%, negative = inhibition) at 10uM” value is -8.9%.
In the case of `O=C(O)c1cccc(-n2nnnc2SCc2ccccn2)c1` it was -23.1%.
The same measure for `Cc1ccc(NC(=O)NNC(=O)c2ccccc2)cc1`: 10.6%; for `N#Cc1ccc(NCC(=O)Nc2ccc3c(c2)OCCO3)cc1`: -4.32%.
In the case of `Cc1cc(C)nc(SCc2nc3ccccc3n2C)n1` it was -0.591%.
Turning to `O=C(O)c1cccnc1SCC(=O)N1CCCc2ccccc21`, the “hERG current change (%, negative = inhibition) at 10uM” value is on record as 14.6%.
As for `CCc1ccc(NC(=O)CCNS(=O)(=O)c2cccc3nsnc23)cc1`, the “hERG current change (%, negative = inhibition) at 10uM” value was -14.9%.
With `CCOC(=O)c1cc(CC)sc1NC(=O)c1ccc([N+](=O)[O-])c(N2CCOCC2)c1`, the “hERG current change (%, negative = inhibition) at 10uM” value is 1.43%.
For `CCOc1cc(C2NC(=S)NC(C)=C2C(=O)Nc2ccc(OC)cc2)ccc1O` (centres unmarked), the “hERG current change (%, negative = inhibition) at 10uM” value was found to be 5.86%.
In the case of `COC(=O)CC1C(=O)NCCN1C(=O)CSc1nnc(Nc2ccc(OC)cc2)s1` (centres unmarked) it was -1.46%; in that of `COc1ccc(-c2c3c(=O)n(C)c(=O)n(C)c3cn2NC(C)=O)cc1`, 12.2%; in that of `C/C(=N\O)C(=O)NCCCNCCCN(C)C`, 7.1%.
The same measure for `O=C(O)c1ccc(OCC2CCCO2)cc1` (centres unmarked): 9.96%.
In the case of `CSc1n[nH]c(NCc2ccccc2)n1` it was 1.23%; in that of `CCOC(=O)c1[nH]c2ccc(Br)cc2c1NC(=O)CCN1CCOCC1`, 2.43%.
As to `COCCCn1c(C(C)C)nc2oc3cc(OC)ccc3c(=O)c2c1=O`, the “hERG current change (%, negative = inhibition) at 10uM” value is recorded as -9.6%.
As for `CC1CCN(C(=O)C2CCCN(c3ncnc4c3nc3n4CCCCC3)C2)CC1` (centres unmarked), the “hERG current change (%, negative = inhibition) at 10uM” value is -41.5%.
In the case of `COc1ccc(NC(=O)c2ccc(CN3CCc4ccccc4C3)cc2)c(OC)c1` it was -8.73%; in that of `O=C1c2cccc3cc([N+](=O)[O-])cc(c23)C(=O)N1/N=C/c1ccc(O)cc1O`, 5.25%; in that of `COc1ccc(N(CC(=O)N/N=C/c2ccc(C(=O)O)cc2)S(=O)(=O)c2ccc(NC(C)=O)cc2)cc1`, 0.241%.
For `Cc1cc(/C=C2\C(=N)N3C(SCc4ccccc4)=NSC3=NC2=O)c(C)n1Cc1ccccc1`, the “hERG current change (%, negative = inhibition) at 10uM” value is -8.37%.
In the case of `CCOC(=O)N1CCN(c2c(NCc3ccccc3OC)c(=O)c2=O)CC1` it was 0.238%.
In the case of `C=CC(=O)NCNC(=O)C=C` it was 21.2%; in that of `NC(=O)Cn1nnc(-c2ccc(CN3CCCCC3)cc2)n1`, 21.6%.
In the case of `O=C(Nc1ccccc1-c1ccccc1)c1ccc(NC(=O)c2ccco2)cc1` it was -2.05%; in that of `O=C(CSc1nc(O)cc(=O)n1-c1ccc(Cl)c(Cl)c1)Nc1ccc(Cl)cc1Cl`, 11.4%; in that of `COc1ccc(-n2cc(-c3ccccc3)c3c(N4CCN(CCO)CC4)ncnc32)cc1`, -42%.
As for `Cc1ccc(S(=O)(=O)Nc2cccc(-c3ccc(N4CCCCCC4)nn3)c2)cc1C`, the “hERG current change (%, negative = inhibition) at 10uM” value turned out to be 21.8%.
In the case of `CC(Cl)C(=O)Nc1cc(C(F)(F)F)ccc1N1CCOCC1` (centres unmarked), the “hERG current change (%, negative = inhibition) at 10uM” value is given as 2.38%.
As to `O=C(N/N=C/c1ccncc1)c1cc([N+](=O)[O-])cc([N+](=O)[O-])c1O`, the “hERG current change (%, negative = inhibition) at 10uM” value worked out at 4.15%.
The same measure for `COc1cccc(-c2nn(C)c3sc(C(=O)NCc4ccco4)cc23)c1`: -0.35%; for `COc1ccc(S(=O)(=O)NCC2CCC(C(=O)NCc3ccc(F)cc3)CC2)cc1` (centres unmarked): 16.7%.
In the case of `CCN(CC(=O)NC(C)C)C(=O)C(CCSC)NC(=O)c1cccc(C)c1` (centres unmarked) it was 11%; in that of `COc1ccc(S(=O)(=O)N2CCOCC2)cc1NC(=O)CSc1n[nH]c(=O)n1C1CC1`, 5.83%; in that of `O=C(c1cccs1)N1CCN(c2ncccn2)CC1`, 0.299%.
The same measure for `COc1cc2c(cc1OC)-c1cc3ccc(OC)c(OC)c3c[n+]1CC2.[Cl-]`: -8.91%; for `Cc1nn(C)cc1CN(C)C(=O)CC12CC3CC(CC(C3)C1)C2`: 0.3%; for `CCN(CC)CCCNC(=O)c1ccccc1NC(=O)C1=CSCCO1`: -27.5%.
For the compound `CN(Cc1c(C(=O)N/N=C/c2ccccc2)nnn1-c1nonc1N)C1CCCCC1`, the “hERG current change (%, negative = inhibition) at 10uM” value was determined as 8.4%.
In the case of `Cc1ccc(S(=O)(=O)N2CCCC(C(=O)N3CCN(c4ccccc4)CC3)C2)cc1` (centres unmarked) it was -46.5%; in that of `CCOC(=O)COc1cc(OCC(=O)OCC)c2c3c(c(=O)oc2c1)CCCC3`, -8.06%.
In the case of `COC(=O)Nc1ccc(S(=O)(=O)N2c3ccccc3CCC2C)cc1` (centres unmarked) it was -2.41%; in that of `COc1cc(C)c(S(=O)(=O)NCCCn2ccnc2)cc1C`, 11.9%.
In the case of `CCOC(=O)c1cc(C)sc1NC(=O)CSc1nnnn1C` it was -22.7%.
In the case of `CCC(NC(=S)NC1CCCCC1)c1ccccc1` (centres unmarked), the “hERG current change (%, negative = inhibition) at 10uM” value is listed as 8.96%.
As to `Cc1ccc(Cn2cc(/C=C/C(=O)O)c(-c3ccccc3)n2)cc1`, the “hERG current change (%, negative = inhibition) at 10uM” value stood at 6.77%.
As to `CC(=O)N1c2ccc(S(=O)(=O)NCCC(=O)N3CCC(C)CC3)cc2CC1C` (centres unmarked), the “hERG current change (%, negative = inhibition) at 10uM” value is 12.7%.
With `O=C(COc1ccc2ccccc2c1)Nc1cccc(C(=O)Nc2ccccc2C(=O)O)c1`, the “hERG current change (%, negative = inhibition) at 10uM” value was 2.39%.
In the case of `C#Cc1cccc(C(=O)N2CCCC(Nc3cccc(F)c3)C2)c1` (centres unmarked) it was -9.07%; in that of `CC(=O)c1cccc(NC(=O)N2CCCC2C(=O)NC2CCCCC2)c1` (centres unmarked), 17.2%; in that of `Cc1ccc(S(=O)(=O)N2CC(C)N(S(C)(=O)=O)C2)cc1` (centres unmarked), 18.5%.
Turning to `CC(C)NC(=O)C1COc2ccccc2O1` (centres unmarked), the “hERG current change (%, negative = inhibition) at 10uM” value amounted to 16.7%.
In the case of `O=C(Nc1ccccc1)Nc1ccc2ccccc2n1` it was 9.86%.
The same measure for `Cn1c(=O)oc2cc(S(=O)(=O)CCC(=O)Nc3ccccc3)ccc21`: 16.8%; for `CC(C)OC(=O)Nc1ccc(N=C(N)N[N+](=O)[O-])cc1`: 2.71%.
The same measure for `CCn1c(CN2CCN(Cc3ccc(C)cc3)C(CCO)C2)nc2ccccc21` (centres unmarked): -74.7%.
On to `O=C(CCSc1ccccc1Cl)Nc1cccc([N+](=O)[O-])c1`, for which the “hERG current change (%, negative = inhibition) at 10uM” value was -6.62%.
Turning to `CC(C)(C)[C@H]1C=C(C(=O)Nc2ccccc2)O[C@@H](OCCCCO)C1`, the “hERG current change (%, negative = inhibition) at 10uM” value is 2.68%.
In the case of `COc1ccc(CCNC(=O)CCCCCN2C(=O)[C@@H]3Cc4ccccc4CN3C2=O)cc1OC` it was -24.4%; in that of `Cc1ccccc1CN(c1ccc(C(N)=O)cc1)S(C)(=O)=O`, -11%; in that of `CC(=O)Nc1nc(-c2cc([N+](=O)[O-])cs2)cs1`, 18.8%.
On to `N#CC1=C(N)NC(SCC(=O)O)=C(C#N)C12CCCC2`, for which the “hERG current change (%, negative = inhibition) at 10uM” value was -7.59%.
In the case of `Cc1ccc(S(=O)(=O)N2CCN(C(=O)COC(=O)CNC(=O)c3ccc(Cl)cc3Cl)CC2)cc1` it was 9.45%; in that of `CCCn1c(NC(=O)c2ccccc2Br)nc2ccccc21`, 16.2%.
In the case of `COc1ccc(N2CCN(CC(O)COc3ccc([N+](=O)[O-])cc3)CC2)cc1.Cl` (centres unmarked) it was -62.5%; in that of `COc1ccn(C)c(=O)c1C#N`, 12.8%; in that of `Cc1sc2ncnc(NCC(O)c3ccccc3)c2c1C` (centres unmarked), 17.7%.
In the case of `Cc1ccc(CN(C)CC(=O)Nc2ccccc2C(=O)NC2CC2)o1` it was -7.18%; in that of `O=C(COC(=O)c1n[nH]c2ccccc12)Nc1ccccc1`, -3.66%; in that of `COc1cccc(NC(=O)C2CCC2)c1`, 8.83%.
For `Cl.OC(COCc1ccccc1F)CN1CCCCC1` (centres unmarked), the “hERG current change (%, negative = inhibition) at 10uM” value is given as 5.73%.
The same measure for `COc1ccc(-c2c3c(nc4sc(C(=O)Nc5cc(C)on5)c(N)c24)CCC3)cc1`: -10.3%.
Take `CCC(=O)c1ccc(OCC(=O)OCC(=O)NC2CCCC2)cc1`: the “hERG current change (%, negative = inhibition) at 10uM” value was determined as 13.8%.
In the case of `Cc1ccc(C)c(NC(=O)C2CC(O)CN2C(=O)OC(C)(C)C)c1` (centres unmarked) it was 12.5%.
For the compound `Cc1ccc(-n2c(SCC(=O)NC3CCS(=O)(=O)C3)nc3ccccc3c2=O)cc1C` (centres unmarked), the “hERG current change (%, negative = inhibition) at 10uM” value is given as -11.4%.
The same measure for `CN(C(=O)Nc1ccc(S(=O)(=O)N(C)C)cc1)C1CCCCC1`: 9.24%.
In the case of `CC1CCN(C(=O)CSc2nnc(-c3cccs3)o2)CC1` it was -16.5%.
In the case of `CCN1C(=O)c2ccccc2Sc2ccc(C(=O)NCCCN(CC(C)C)CC(C)C)cc21`, the “hERG current change (%, negative = inhibition) at 10uM” value was -64.3%.
The same measure for `CS(=O)(=O)N1CCN(c2ccc(NC(=O)CSc3nnc(-c4ccco4)o3)cc2)CC1`: 32.9%.
Take `CCN1CCN(c2ncnc3sc(C(=O)Nc4ccccc4F)c(C)c23)CC1`: the “hERG current change (%, negative = inhibition) at 10uM” value is -67%.
In the case of `O=C(CSc1nnc2n1CCCN2)c1ccc([N+](=O)[O-])cc1` it was -49.8%; in that of `O=C(O)C1CCCCC1C(=O)Nc1ccc(F)c(F)c1` (centres unmarked), 3.08%.
In the case of `COCC(C)n1c(SCC(=O)N2CCCCC2)nc2ccccc2c1=O` (centres unmarked) it was -25.9%.
